In article PMC4336329 (PLoS ONE, 2015):
Out of some 310,000 compounds screened, about 14,000 (4.5%) showed an effect of 50% or more. The effect is printed as a negative number. The list shows a part of the results.

molecular target: human ether-à-go-go-related gene (hERG) potassium channel (human, UniProt Q12809); test: primary screen, population patch clamp on CHO cells stably expressing hERG
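Note: peak tail current of the secondary pulse compared with the same well before compound.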

human ether-à-go-go-related gene (hERG) potassium channel, sequence (Q12809 whole entry, looked up): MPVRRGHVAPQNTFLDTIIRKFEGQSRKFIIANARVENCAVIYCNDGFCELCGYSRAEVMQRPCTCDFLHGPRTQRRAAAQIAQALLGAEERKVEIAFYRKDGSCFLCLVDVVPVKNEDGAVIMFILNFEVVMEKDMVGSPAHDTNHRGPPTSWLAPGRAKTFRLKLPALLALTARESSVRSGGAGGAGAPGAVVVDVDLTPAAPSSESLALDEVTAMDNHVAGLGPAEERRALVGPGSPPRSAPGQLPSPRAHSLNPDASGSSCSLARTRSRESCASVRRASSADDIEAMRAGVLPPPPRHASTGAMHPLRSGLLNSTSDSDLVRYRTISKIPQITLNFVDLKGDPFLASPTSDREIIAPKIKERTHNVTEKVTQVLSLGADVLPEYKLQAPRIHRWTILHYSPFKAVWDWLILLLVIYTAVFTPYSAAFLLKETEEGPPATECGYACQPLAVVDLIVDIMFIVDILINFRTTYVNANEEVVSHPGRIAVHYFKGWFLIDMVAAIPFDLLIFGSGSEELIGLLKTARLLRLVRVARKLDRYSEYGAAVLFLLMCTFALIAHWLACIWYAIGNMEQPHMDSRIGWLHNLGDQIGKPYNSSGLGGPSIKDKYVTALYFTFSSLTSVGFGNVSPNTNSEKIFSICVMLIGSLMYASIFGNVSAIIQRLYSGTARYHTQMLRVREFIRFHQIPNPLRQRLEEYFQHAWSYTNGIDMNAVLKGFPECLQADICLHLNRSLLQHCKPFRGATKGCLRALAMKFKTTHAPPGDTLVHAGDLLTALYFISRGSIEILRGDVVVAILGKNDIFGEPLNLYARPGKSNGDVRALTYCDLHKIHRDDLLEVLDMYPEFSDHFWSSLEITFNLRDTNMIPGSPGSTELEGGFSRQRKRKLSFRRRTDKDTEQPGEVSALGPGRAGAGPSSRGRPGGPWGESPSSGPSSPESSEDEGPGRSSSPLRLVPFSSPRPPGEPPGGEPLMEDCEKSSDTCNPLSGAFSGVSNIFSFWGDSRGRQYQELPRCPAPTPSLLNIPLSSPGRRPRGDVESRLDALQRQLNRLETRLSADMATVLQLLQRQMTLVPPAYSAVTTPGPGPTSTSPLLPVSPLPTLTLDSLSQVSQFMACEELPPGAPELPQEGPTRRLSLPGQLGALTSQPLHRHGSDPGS

Compared with `COc1ccc(C2CC(c3cccs3)=NN2c2ccc(F)cc2)cc1OC` (stereo not drawn), `COc1ccc(CCNC(=O)Cn2nnc(-c3cccs3)n2)cc1OC` is lower in “hERG current change (%, negative = inhibition) at 10uM” value: 26.6% for the first, -7.76% for the second.

First: CCOC(=O)c1ccc(N=C2SC(C(=O)Nc3ccc(C(=O)O)cc3)CC(=O)N2Cc2cccs2)cc1 (stereo not drawn)
Second: CCOC(=O)c1cc(-c2ccccc2)n(CC(=O)Nc2ccc(OC)c(OC)c2)c1C
The “hERG current change (%, negative = inhibition) at 10uM” value of the first is lower: -1.48% for the first, 3.72% for the second.

Compared with `Cn1c(SCc2cccc(F)c2)nnc1-c1ccncc1`, `O=C(CSc1nnc(Cc2ccccc2)o1)c1ccc2c(c1)OCO2` is lower in “hERG current change (%, negative = inhibition) at 10uM” value: 12.3% for the first, -0.908% for the second.

First: Cc1cc(NC(=O)CN2CCCCC2C)no1.O=C(O)C(=O)O (stereo not drawn)
Second: Cc1c(OCC(=O)N2CCC(C(=O)O)CC2)ccc2c3c(c(=O)oc12)CCCC3
The “hERG current change (%, negative = inhibition) at 10uM” value of the first is lower: -4.13% for the first, 1.32% for the second.

Compared with `CCOC(=O)C1CCCN(S(=O)(=O)c2cc3[nH]c(=O)c(=O)[nH]c3cc2C)C1` (stereo not drawn), `Cc1ccc(C(=O)NC2CCS(=O)(=O)C2)cc1S(=O)(=O)N1CCCCC1` (stereo not drawn) is lower in “hERG current change (%, negative = inhibition) at 10uM” value: 8.67% for the first, 1.42% for the second.

Compared with `O=c1[nH]c(-c2ccccc2)nn1-c1ccc(Br)cc1Br`, `Cc1nn2c3ccccc3n(Cc3ccccc3)c2nc1=O` is lower in “hERG current change (%, negative = inhibition) at 10uM” value: 11.5% for the first, -0.223% for the second.

First: Cc1ccc(Cl)cc1S(=O)(=O)N1CCC(C(=O)NC2CCN(Cc3ccccc3)CC2)CC1
Second: O=C1c2cccnc2C(Nc2ccc(S(=O)(=O)N3CCCCC3)cc2)N1Cc1ccccc1 (stereo not drawn)
The “hERG current change (%, negative = inhibition) at 10uM” value of the first is lower: -71.5% for the first, 12.1% for the second.

Compared with `O=C(CCNS(=O)(=O)c1cccc2nonc12)NC1CCCc2ccccc21` (stereo not drawn), `O=S(=O)(c1ccccc1)c1nc(NCc2ccccc2)sc1Cl` is lower in “hERG current change (%, negative = inhibition) at 10uM” value: 3.83% for the first, -9.88% for the second.

Compared with `CCOc1ccc2nc(SCc3ccccc3C#N)sc2c1`, `CSc1nc2ccc(NS(=O)(=O)c3cccc(Cl)c3Cl)cc2s1` is lower in “hERG current change (%, negative = inhibition) at 10uM” value: 7.77% for the first, -6.36% for the second.

Compared with `COCC(=O)N(Cc1cc2cc(OC)ccc2[nH]c1=O)c1ccc(C)cc1`, `Cc1ccc2[nH]c(=O)c(C(c3nnnn3CC3CCCO3)N3CCc4ccccc4C3)cc2c1` (stereo not drawn) is higher in “hERG current change (%, negative = inhibition) at 10uM” value: -11.9% for the first, -9.96% for the second.

First: O=C(c1ccc(N2CCCCC2)c([N+](=O)[O-])c1)N1CCOCC1
Second: CN(C(=O)c1sc2nc(N3CCOCC3)c3c(c2c1N)CCCC3)c1ccccc1
The “hERG current change (%, negative = inhibition) at 10uM” value of the first is lower: -22.6% for the first, 19.5% for the second.

Going from `Cc1nn(CCC(=O)NNC(=S)Nc2ccc(F)cc2)c(C)c1[N+](=O)[O-]` to `Cc1ccc(C)c(NC(=O)CCc2nnc3ccc(NCc4ccco4)nn23)c1`, the “hERG current change (%, negative = inhibition) at 10uM” value rises from 2.08% to 14.8%.

First: Cc1c(NC(=O)C(C)N(c2ccccc2)S(C)(=O)=O)c(=O)n(-c2ccccc2)n1C (stereo not drawn)
Second: O=C(CCl)Nc1ccccc1Sc1ccccc1
The “hERG current change (%, negative = inhibition) at 10uM” value of the first is higher: 18.7% for the first, -10.7% for the second.

Going from `CC1CCN(c2nc3c(c(=O)[nH]c(=O)n3C)n2Cc2ccccc2)CC1` to `Cc1ccc(Cn2c(SCCN3CCCCC3)nc3c2c(=O)[nH]c(=O)n3C)cc1`, the “hERG current change (%, negative = inhibition) at 10uM” value falls from 7.99% to -74.1%.

Compared with `CCCC(=O)Nc1c(C)n[nH]c1C`, `CCOC(=O)NCc1ccc(Cl)c(Cl)c1` is lower in “hERG current change (%, negative = inhibition) at 10uM” value: 5.36% for the first, -9.24% for the second.

Compared with `N#Cc1cnc(SCC(=O)N2CCCC2)nc1N`, `O=C(Nc1ccncc1)c1cccc(S(=O)(=O)N2CCCC2)c1` is lower in “hERG current change (%, negative = inhibition) at 10uM” value: 13.1% for the first, -60.7% for the second.

Going from `CCOC(=O)C1C(O)=CC(=O)CC1c1ccccc1` (stereo not drawn) to `O=C(O)CC1C(=O)NCCN1CCCc1ccccc1` (stereo not drawn), the “hERG current change (%, negative = inhibition) at 10uM” value falls from 16.9% to 3.16%.

First: Cc1ccc(NC(=O)C(=O)NCCCN2CCCC2=O)c(C)c1
Second: Cn1c(C(=O)NCCCN2CCCCCC2)cc2c(=O)n(C)c3ccccc3c21
The “hERG current change (%, negative = inhibition) at 10uM” value of the first is higher: 5.82% for the first, -16.6% for the second.

Compared with `Cl.O=C(O)CCc1nc2cc3ccccc3cc2[nH]1`, `O=C(O)c1cc(-c2ccc(-c3ccc(F)cc3)o2)nc2ccccc12` is lower in “hERG current change (%, negative = inhibition) at 10uM” value: 23% for the first, 18.1% for the second.

Compared with `COCCN(CCOC)S(=O)(=O)c1ccc(Cl)nc1`, `CCOC(=O)N1CCN(C(=O)c2cn(CCOC)c(=O)c3c2c2ccccc2n3C)CC1` is higher in “hERG current change (%, negative = inhibition) at 10uM” value: -9.7% for the first, 5.61% for the second.

First: COC(=O)C1=C(c2cc3ccccc3s2)C[C@@H]2CC[C@H]1N2C(=O)N1CCC(O)CC1
Second: Cc1ccccc1C1c2[nH]c3ccccc3c2C[C@H]2C(=O)N(C3CC3)CC(=O)N12 (stereo partly drawn)
The “hERG current change (%, negative = inhibition) at 10uM” value of the first is lower: -7.57% for the first, 8.06% for the second.

First: O=C(CCCCCn1c(=O)[nH]c2ccsc2c1=O)N1CCN(C2CCCCC2)CC1
Second: O=C(COn1nnc2ccccc21)NCC1CCCCC1
The “hERG current change (%, negative = inhibition) at 10uM” value of the first is lower: -40.2% for the first, 25.6% for the second.

First: S=C(Nc1ccccc1)Nc1cc(Cl)ccc1Oc1ccccc1
Second: COc1ccccc1OCc1cc(-c2ccccc2)no1
The “hERG current change (%, negative = inhibition) at 10uM” value of the first is higher: 0.316% for the first, -7.11% for the second.

Compared with `COc1ccc(Nc2nc(C(F)(F)F)nc(C)c2C#N)cc1`, `CC(=O)c1sc(NC(=O)c2ccc(C(C)(C)C)cc2)nc1C` is lower in “hERG current change (%, negative = inhibition) at 10uM” value: 8.81% for the first, -6.02% for the second.

Going from `Cc1cc(NC(=O)c2ccc(F)cc2F)n(-c2nc3ccccc3[nH]2)n1` to `O=C(NCCc1ccc(Cl)cc1)C(=O)c1c[nH]c2ccccc12`, the “hERG current change (%, negative = inhibition) at 10uM” value falls from 25% to -10.8%.

Going from `CN=c1sc2ccccc2n1CC(O)c1ccccc1` (stereo not drawn) to `COc1cc2c(C)nc3c(c(C)nn3-c3ccccc3)c2cc1OC`, the “hERG current change (%, negative = inhibition) at 10uM” value rises from -21.4% to 10.4%.

Going from `CCN1CCN(c2ccc(N)cc2C)CC1.Cl` to `CN(Cc1ccc2nonc2c1)Cc1nc(CC2CC2)no1`, the “hERG current change (%, negative = inhibition) at 10uM” value falls from 2.22% to -9.36%.

First: CCCN(CC(=O)Nc1ccccc1Br)CC(=O)Nc1ccc(F)c(F)c1F
Second: OCCOCCn1c(CCNc2nc(-c3ccc(Cl)cc3)cs2)nc2cc(Cl)c(Cl)cc21
The “hERG current change (%, negative = inhibition) at 10uM” value of the first is lower: -16.4% for the first, 3.83% for the second.

`CN(Cc1nc(-c2cnccn2)no1)C1CC(C)(C)NC(C)(C)C1` was tested, and the “hERG current change (%, negative = inhibition) at 10uM” value was 15.4%.
